The text below walks through data of PubChem BioAssay AID488969 (Vanderbilt High Throughput Screening Facility, 2010).

Over roughly 110,000 compounds, “z-score” has its median near -0.1; the highest 2% begin near 2. This is one part of the list. Calls of active or inactive are those of the source.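 How the source made its calls: active means z-score in the third read window above 3 or below -3; inactive means the rest.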

For the assay, the target named is Metabotropic glutamate receptor 8 (Rattus norvegicus) (UniProt P70579). Kind of assay: rat mGluR8 modulators via GIRK flux, primary screen, cell-based, thallium flux, HTS (AID 488969). Particulars: HEK293 rat mGluR8, GIRK (G protein-gated inwardly rectifying potassium channel) thallium flux, FluoZin2; at 10 µM; stronger effect = higher value; submaximal glutamate (EC20) added with thallium.
Sequence of UniProt P70579 (P70579 whole entry, looked up): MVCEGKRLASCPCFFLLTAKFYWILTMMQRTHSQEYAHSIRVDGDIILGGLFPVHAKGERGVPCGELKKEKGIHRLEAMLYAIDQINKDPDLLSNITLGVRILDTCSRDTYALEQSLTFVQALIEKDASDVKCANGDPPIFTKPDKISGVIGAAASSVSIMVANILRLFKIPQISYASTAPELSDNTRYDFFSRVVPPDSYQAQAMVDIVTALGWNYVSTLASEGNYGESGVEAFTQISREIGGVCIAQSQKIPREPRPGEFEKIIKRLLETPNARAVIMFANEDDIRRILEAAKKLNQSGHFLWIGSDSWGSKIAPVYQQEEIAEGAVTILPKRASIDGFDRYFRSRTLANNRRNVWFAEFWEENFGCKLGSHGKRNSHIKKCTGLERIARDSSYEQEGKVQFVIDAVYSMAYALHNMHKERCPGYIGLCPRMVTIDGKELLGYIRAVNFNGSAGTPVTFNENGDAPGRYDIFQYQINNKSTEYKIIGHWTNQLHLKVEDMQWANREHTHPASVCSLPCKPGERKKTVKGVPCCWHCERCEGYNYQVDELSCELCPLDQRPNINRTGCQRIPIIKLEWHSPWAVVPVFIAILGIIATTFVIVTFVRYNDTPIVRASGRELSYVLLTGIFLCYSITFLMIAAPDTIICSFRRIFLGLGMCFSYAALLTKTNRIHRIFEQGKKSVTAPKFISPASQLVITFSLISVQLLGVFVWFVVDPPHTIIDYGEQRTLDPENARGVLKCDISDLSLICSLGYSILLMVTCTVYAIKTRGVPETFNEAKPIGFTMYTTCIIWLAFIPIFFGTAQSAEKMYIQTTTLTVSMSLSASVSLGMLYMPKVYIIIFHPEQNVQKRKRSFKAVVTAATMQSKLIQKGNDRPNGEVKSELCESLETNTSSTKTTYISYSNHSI
Compound `O=C(NCc1nnc(SCc2ccc(F)cc2)n1-c1ccccc1)C12CC3CC(CC(C3)C1)C2` displayed a z-score of -0.701.

On to `COc1ccccc1NC(=S)Nc1ccccn1`, for which the z-score was 0.164.

`COc1ccc(Nc2ccc(C(=O)O)cc2[N+](=O)[O-])cc1` came in with a z-score of 1.23.

On to `O=C(Nc1ccc2c(c1)C(=O)N(CC1CCCO1)C2=O)c1cccc(Br)c1` (stereo not drawn), for which the z-score was -0.369.

Consider `COc1ccc(Oc2nccc(OC)c2C#N)cc1`, for which the z-score came to 0.0921.

Take `Cc1ccc(Cn2nnnc2CN2CCC(c3nc4ccc(Cl)cc4[nH]3)CC2)cc1`: the z-score was -1.45.

`Cc1ccc(S(=O)(=O)N2CCN(C(=O)c3cccc(F)c3)CC2)cc1` gave a z-score of -0.012.

Take `Cc1ccc(-c2nc3ncccn3c2NC2CCCC2)o1`: the z-score is -0.343.

Compound `CCOc1ccc(C(=O)NCC2CCCO2)cc1` (stereo not drawn) had a z-score of 0.58.

The compound `O=S(=O)(NCC1CCCO1)c1ccc(S(=O)(=O)N(Cc2ccc(F)cc2)C2CCCCC2)cc1` (stereo not drawn) came in with a z-score of -0.0636.

As for `Cc1ccc(C)c(N2CCN(C(=O)c3ccc4nc(-c5ccco5)c(-c5ccco5)nc4c3)CC2)c1`, the z-score was -0.183.

Consider `Oc1ccc(Cl)cc1C(C#Cc1ccccc1)N1CCOCC1` (stereo not drawn), for which the z-score is -0.0129.

Turning to `O=C(Cc1ccccc1)N/N=C/c1cccn1-c1ccc([N+](=O)[O-])cc1`, the z-score is active: 3.83.

In turn, `Cc1cccc(OCCCC(=O)Nc2ccc(N3CCCCC3)cc2)c1` showed a z-score of 0.00859.

`O=c1[nH]c(/C(Cl)=C/c2cc(Cl)ccc2O)nc2cc(Cl)ccc12`: the z-score came to 0.496.

In turn, `COC(=O)c1ccc(NC(=O)c2cn(-c3cccc(C)n3)cn2)cc1` yielded a z-score of -0.196.

As to `Nc1ccc(Sc2cnn(-c3ccccc3)c(=O)c2Cl)cc1`, the z-score was -2.01.

The compound `COC(=O)c1cn(CCOc2ccccc2)c2ccccc12` showed a z-score of -0.11.

For the compound `O=C(N/N=C/c1ccc(OCc2ccccc2)cc1)c1cc[n+](Cc2ccccc2)cc1`, the z-score turned out to be 1.44.

The compound `CCOC(=O)c1sc(C)c2c(=O)n(CC)nnc12` returned a z-score of 0.154.

With `CCN(CC)C(=O)c1c(C)nc2ccccn12`, the z-score was -0.394.

`Cc1cc(C)n(CC(=O)n2c(C)c(C)c3ccccc32)n1` registered a z-score of -0.195.

Regarding `COC(=O)Cc1cc(=O)[nH]c(Nc2nc3ccccc3o2)n1`, the z-score is -0.0319.

The compound `O=C(CCN1C(=O)/C(=C\c2ccccc2)SC1=S)NNC(=O)c1cccnc1` displayed a z-score of -0.57.

`N/C(Cc1ccc([N+](=O)[O-])cc1)=N\OC(=O)c1ccc2ccccc2c1` gave a z-score of 0.358.

On to `CC(=O)CSc1nnc(CSc2ncccn2)n1C1CCCCC1`, for which the z-score amounted to 0.152.

On to `Cc1ccc(NC(=O)CN2C(=O)C3C4C=CC(C4)C3C2=O)cc1S(=O)(=O)N(C)C` (stereo not drawn), for which the z-score is -0.278.

In turn, `CC(C)(C)c1ccc(CN(Cc2ccccc2)C(c2ccccn2)c2nnnn2C(C)(C)C)cc1` (stereo not drawn) came in with a z-score of 0.203.

`O=C1C2C3C=CC(C3)C2C(=O)N1/N=C/c1cc(Br)cc([N+](=O)[O-])c1O` (stereo not drawn): the z-score was -0.236.

`Cc1cc(Br)ccc1OCCCCNC(C)(C)C` yielded a z-score of 1.25.

For the compound `O=[N+]([O-])c1ccc(Oc2cccc(Br)c2)c2ccncc12`, the z-score was determined as 0.302.

Compound `O=C(CCCc1c[nH]c2ccccc12)N1CCN(c2ccc(N3CCOCC3)nn2)CC1` showed a z-score of -0.501.

As for `CC(=O)c1cc2c(cc1NS(=O)(=O)c1ccc3c(c1)OCCO3)OCO2`, the z-score was -1.28.

Turning to `CCOC(=O)c1ccc(NC(=O)COc2ccc(S(=O)(=O)NC(C)CC)cc2)cc1` (stereo not drawn), the z-score is -0.303.

As for `Cc1c(CCO)c(=O)n(-c2ccccc2)n1S(=O)(=O)c1ccc(F)cc1`, the z-score was found to be 0.325.

`Cc1nn(-c2ccccc2)c(C)c1C1C(C#N)=C(N)Oc2n[nH]c(C)c21` (stereo not drawn) had a z-score of -0.293.

`C=CCOC(=O)C1=C(C)NC(SCC(=O)OCC)=C(C#N)C1c1ccc(C)cc1` (stereo not drawn): the z-score is -0.147.

`O=C(O)c1c(NC(=O)c2cccc3ccccc23)sc2c1CCC2` yielded a z-score of -1.42.

As to `COc1ccc(Nc2nc(N3CCCCC3)c3ccccc3n2)cc1`, the z-score amounted to 1.03.

Regarding `CC1=CC2=NC(=O)/C(=C\c3cc(C)n(-c4ccccc4)c3C)C(=N)N2O1`, the z-score was 0.321.

Turning to `O=C(O)CCc1nnc2n(Cc3ccc(F)cc3)c(=O)c3ccccc3n12`, the z-score was -0.587.

Consider `S=C(Nc1ccc2nsnc2c1)N1CCCCC1`, for which the z-score was -0.0604.

Regarding `Oc1ccc(C(=S)N2CCCCCC2)cc1`, the z-score was -0.122.

As for `O=C(COC(=O)c1c2c(nc3ccccc13)/C(=C/c1ccco1)CC2)NC1CCCC1`, the z-score came out at 0.0442.

The compound `Cc1ccc(CSc2nnc(-c3ccc(S(=O)(=O)N4CCCC4)cc3)o2)cc1` came in with a z-score of 1.62.

For the compound `COc1cc(C(=O)N2CCC(c3nc(-c4cccnc4)no3)CC2)cc(OC)c1OC`, the z-score is -0.0889.

On to `O=C(/C=C/c1ccccc1)C1C(=O)c2ccccc2C1=O`, for which the z-score is active: 4.21.

The compound `O=C(O)COc1ccc(Br)cc1/C=C1/SC(=O)N(CC(=O)N2CCCC2)C1=O` registered a z-score of -0.0243.

Consider `Cc1ccc2c(=O)c(C(=O)NCc3cccs3)c[nH]c2c1`, for which the z-score is 0.313.

`O=C(NCc1cccnc1)C1c2ccccc2C(=O)N1C1CCCCCC1` (stereo not drawn) returned a z-score of -0.161.

For `Cc1nn(-c2ccccc2Cl)c(Cl)c1/C=N/Nc1nc2ccccc2s1`, the z-score was 0.161.

Turning to `Cc1conc1NC(c1cccs1)c1ccc2cccnc2c1O` (stereo not drawn), the z-score is active: 3.41.

In the case of `NS(=O)(=O)c1ccc(Nc2nc(-c3ccccc3)cs2)cc1`, the z-score was -0.159.

On to `Cc1ccc2nc(-c3ccccn3)cc(C(=O)N3CCN(c4ncccn4)CC3)c2c1`, for which the z-score is -0.843.

`CCOc1cccc(-c2nnc3sc(COc4ccc(OC)cc4)nn23)c1`: the z-score was -0.272.

`Cc1cccc(C(=O)Nc2nnc(-c3ccco3)o2)c1` came in with a z-score of 0.11.

`CCc1ccccc1N1CC23C=CC(O2)C(C(=O)OC)C3C1=O` (stereo not drawn) gave a z-score of 0.413.

Compound `Cc1ccc2oc(=O)c3cnn(CC(=O)N(CCC(C)C)Cc4ccco4)c3c2c1` gave a z-score of -2.01.

`CC(C)(C)c1ccc(C(=O)N2CCCCCC2=O)cc1` gave a z-score of -0.238.

The compound `CCOc1ccccc1N1Cc2cc(C)c(C)cc2C1` yielded a z-score of 0.67.

In the case of `COc1ccc(OC)c(NC(=O)Nc2cccc(Cn3cccn3)c2)c1`, the z-score is -0.416.

The compound `CN1C(=O)C(CC(=O)Nc2ccc3c(c2)Cc2ccccc2-3)N(C)C1=O` (stereo not drawn) showed a z-score of 0.675.

`Cc1cc(C)c(C)c(S(=O)(=O)ON2C(=O)c3ccccc3C2=O)c1C`: the z-score is -0.121.

With `Cc1cc(Cl)ccc1Oc1cccc(C(=O)/C(C#N)=C/N(C)C)c1`, the z-score is -0.334.

With `COc1ccc(C2C=C(c3ccccc3)Nc3ncnn32)cc1` (stereo not drawn), the z-score is -2.33.

Compound `COc1cc(/C=C/C(=O)Nc2ccc(N3CCCCC3)c(S(=O)(=O)Nc3ccccc3Cl)c2)cc(OC)c1OC` yielded a z-score of -0.129.

With `O=C(COC(=O)COc1ccccc1)NC1CCCc2ccccc21` (stereo not drawn), the z-score was -0.426.

Take `O=C(Cn1c(=O)oc2ccccc21)N1CCN(c2ccccc2)CC1`: the z-score was determined as 0.442.

`O=C(Nc1cccc(C(=O)N2CCCC2)c1)c1ccccc1` showed a z-score of -0.224.

The compound `COc1ccc(-c2cc(N)n(S(=O)(=O)c3ccc(C)cc3)n2)c(OC)c1` registered a z-score of -0.184.

Turning to `COc1ccc(NC(=O)Nc2c(C)n(-c3ccccc3)c(=O)n2C)cc1OC`, the z-score worked out at 0.771.

For the compound `COc1cc(OC)cc(-c2nc3ccccc3c(=O)n2OC(=O)c2ccc(C)c(C)c2)c1`, the z-score is -0.711.

As for `CC(=O)Oc1ccc2ccccc2c1C(NC(=O)Cc1ccccc1)c1ccc(Cl)cc1` (stereo not drawn), the z-score was -0.109.

Turning to `CCC(C)(C)n1nnnc1C(c1ccc(C)cc1)N1CCSCC1` (stereo not drawn), the z-score is -0.406.

Regarding `CC1=NNC(=O)C1CCC(=O)N/N=C(/C)c1ccc([N+](=O)[O-])cc1` (stereo not drawn), the z-score was -0.197.

On to `O=C(NC(N1CCCCCC1)C(Cl)(Cl)Cl)c1ccccc1Cl` (stereo not drawn), for which the z-score is -0.147.

For the compound `COC(=O)c1ccc(NC(C)C(=O)OC)c([N+](=O)[O-])c1` (stereo not drawn), the z-score was found to be 0.768.

The compound `Cc1ccc(-n2nc3c(c2NC(=O)c2ccccc2Br)CS(=O)C3)cc1` (stereo not drawn) had a z-score of -0.104.

For `Cc1ccc(-c2nc3n(n2)Cc2ccccc2-3)cc1`, the z-score is -0.495.

On to `CCc1cccc(CC)c1NC(=O)COC(=O)C1(c2ccc(Cl)cc2)CCCC1`, for which the z-score is -0.174.

Compound `CCc1nnc(NC(=O)c2ccc(Cl)c(S(=O)(=O)N3CCc4ccccc43)c2)s1` registered a z-score of -0.758.

`COC(=O)C1C(=O)c2c([nH]c(C(=O)OC3CCCC3)c2C)CC1C` (stereo not drawn): the z-score is -1.66.

`O=C(Cc1c[nH]c2ccccc12)OCC(=O)c1ccccc1` had a z-score of -0.21.

As for `CCOc1ccc(S(=O)(=O)n2nnc3ccccc32)cc1C(C)C`, the z-score is 0.0867.

Compound `Cc1cc(-c2csc(N)n2)c(C)n1-c1ccc(Cl)c(Cl)c1` registered a z-score of 0.23.

Take `CC(c1ccco1)N(C(=O)c1ccccc1NS(=O)(=O)c1ccc(Cl)cc1)c1ccccn1` (stereo not drawn): the z-score was -0.362.

Compound `CCCSc1nc2c(=O)[nH][nH]c(=O)c2n1Cc1ccccc1` yielded a z-score of -2.43.

`CCc1cc2c(NC(C(=O)O)C(C)C)ncnc2s1` (stereo not drawn): the z-score is -2.02.

Consider `CCS(=O)(=O)Nc1ccc(Cc2ccc(NS(=O)(=O)CC)cc2)cc1`, for which the z-score amounted to 0.315.

`Cc1ccc(C(=O)OCC(=O)Nc2ccccc2N2CCOCC2)cc1` yielded a z-score of -1.57.

Consider `N#C/C(=C(\O)CCl)c1nnc2n1CCCCC2`, for which the z-score was -0.399.

As for `Cc1c(/C(O)=C2\C(=O)C(=O)N(CCN(C)C)C2c2cccs2)cnn1-c1ccccc1` (stereo not drawn), the z-score came out at 0.388.

As for `Cn1c(=O)c2c(nc(OCc3ccc4c(c3)OCO4)n2Cc2ccccc2Cl)n(C)c1=O`, the z-score was -0.0202.

The compound `Cc1ccccc1C(=O)OCCCN=C1NS(=O)(=O)c2ccccc21` showed a z-score of -0.257.

In turn, `O=C(OCC(=O)N1CCCCC1)c1cc(NS(=O)(=O)c2ccc(Cl)c([N+](=O)[O-])c2)ccc1O` registered a z-score of -0.652.

Consider `S=C(Nc1cccc2ccccc12)N1CCN(c2ncccn2)CC1`, for which the z-score was -0.1.

`COc1ccc(CCNC(=O)CSCc2ccc(C)cc2)cc1OC` displayed a z-score of -0.18.

In turn, `O=c1/c(=C\c2cccnc2)sc2nc3ccccc3n12` returned a z-score of -0.0361.

Take `COc1ccccc1NC(=O)C(CC=C(Cl)Cl)C(C)=O` (stereo not drawn): the z-score is -0.167.

Regarding `COc1cc2c(cc1OC)CN(CC(=O)Nc1cccc(C)c1)CC2`, the z-score was -0.581.

As to `O=C(CCc1nc(-c2ccccc2F)no1)NCCc1ccccc1Cl`, the z-score was -0.748.

For `COC(=O)c1ccc(Cl)c(NC(C)=O)c1`, the z-score was determined as 0.411.

In turn, `CC(C)NC(=O)c1ccccc1N(Cc1ccccc1)S(C)(=O)=O` yielded a z-score of 0.373.

Consider `CC(=O)Nc1cccc(NC(=O)CSc2nnc(Cc3cccn3C)n2CCc2ccccc2)c1`, for which the z-score was -0.499.

`COc1ccc(C(OC(=O)c2ccco2)C(=O)NC2CCCCC2)cc1` (stereo not drawn): the z-score worked out at 0.293.

With `COC(=O)C1CCN(C(=O)Cc2ccc(Br)cc2)CC1`, the z-score is -0.128.

Regarding `COc1ccc(Cn2c(/C=C/c3ccccc3)nc3ccccc32)cc1`, the z-score was -0.424.

On to `CC(c1cccs1)N(C(=O)Nc1ccccc1)C1CCCCC1` (stereo not drawn), for which the z-score is -0.424.
